# Experimental data reported in the supplement of paper PMC8728848.
# Some of the results follow.
# Legend:
# Experiment in all cases: glycan array binding signal (z-score within array); higher = stronger binding
# Settings in all cases: glycan notation: IUPAC condensed, linker removed
# [1] = target: Gal(b1-4)GlcNAc(b1-2)Man(a1-3)[Gal(b1-4)GlcNAc(b1-2)Man(a1-6)]Man(b1-4)GlcNAc(b1-4)[Fuc(a1-6)]GlcNAc
# In short: (§1)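 The binding signal is a Z-score computed within each array. Data were drawn from 3228 arrays in the Consortium for Functional Glycomics database, restricted to those with a known protein sequence. Scores were averaged over arrays of the same protein sequence at different concentrations or buffers, and over linkers, and negative values can be taken as non-binding.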
# [2] = target: Gal(b1-4)GlcNAc(b1-2)Man(a1-3)[Gal(b1-4)GlcNAc(b1-2)Man(a1-6)][Gal(b1-4)GlcNAc(b1-4)]Man(b1-4)GlcNAc(b1-4)[Fuc(a1-6)]GlcNAc
# In short: as §1
# [3] = target: Gal(b1-4)GlcNAc(b1-2)Man(a1-3)[Gal(b1-4)GlcNAc(b1-2)Man(a1-6)][GlcNAc(b1-4)]Man(b1-4)GlcNAc(b1-4)[Fuc(a1-6)]GlcNAc
# In short: as §1
# [4] = target: Gal(b1-4)GlcNAc(b1-2)Man(a1-3)[GlcNAc(b1-2)Man(a1-6)]Man(b1-4)GlcNAc(b1-4)GlcNAc
# In short: as §1
# [5] = target: Gal(b1-4)GlcNAc(b1-2)Man(a1-3)[GlcNAc(b1-4)][Gal(b1-4)GlcNAc(b1-2)Man(a1-6)]Man(b1-4)GlcNAc(b1-4)GlcNAc
# In short: as §1
# [6] = target: Gal(b1-4)GlcNAc(b1-2)Man(a1-3)[Man(a1-6)]Man(b1-4)GlcNAc(b1-4)GlcNAc
# In short: as §1
# [7] = target: Gal(b1-4)GlcNAc(b1-2)Man(a1-6)Man(b1-4)GlcNAc(b1-4)GlcNAc
# In short: as §1
# [8] = target: Gal(b1-4)GlcNAc(b1-2)Man(a1-6)[GlcNAc(b1-2)Man(a1-3)]Man(b1-4)GlcNAc(b1-4)GlcNAc
# In short: as §1
# [9] = target: Gal(b1-4)GlcNAc(b1-2)Man(a1-6)[Man(a1-3)]Man(b1-4)GlcNAc(b1-4)GlcNAc
# In short: as §1
# [10] = target: Gal(b1-4)GlcNAc(b1-2)[Gal(b1-4)GlcNAc(b1-4)]Man(a1-3)[Gal(b1-4)GlcNAc(b1-2)Man(a1-6)]Man(b1-4)GlcNAc(b1-4)GlcNAc
# In short: as §1
# [11] = target: Gal(b1-4)GlcNAc(b1-2)[Gal(b1-4)GlcNAc(b1-4)]Man(a1-3)[Gal(b1-4)GlcNAc(b1-2)[Gal(b1-4)GlcNAc(b1-6)]Man(a1-6)]Man(b1-4)GlcNAc(b1-4)GlcNAc
# In short: as §1
# [12] = target: Gal(b1-4)GlcNAc(b1-2)[Gal(b1-4)GlcNAc(b1-4)]Man(a1-3)[GlcNAc(b1-4)][Gal(b1-4)GlcNAc(b1-2)Man(a1-6)]Man(b1-4)GlcNAc(b1-4)GlcNAc
# In short: as §1
# [13] = target: Gal(b1-4)GlcNAc(b1-2)[Gal(b1-4)GlcNAc(b1-4)]Man(a1-3)[GlcNAc(b1-4)][Gal(b1-4)GlcNAc(b1-2)[Gal(b1-4)GlcNAc(b1-6)]Man(a1-6)]Man(b1-4)GlcNAc(b1-4)GlcNAc
# In short: as §1
# [14] = target: Gal(b1-4)GlcNAc(b1-2)[Gal(b1-4)GlcNAc(b1-6)]Man(a1-6)[Gal(b1-4)GlcNAc(b1-2)Man(a1-3)]Man(b1-4)GlcNAc(b1-4)GlcNAc
# In short: as §1
# [15] = target: Gal(b1-4)GlcNAc(b1-2)[Gal(b1-4)GlcNAc(b1-6)]Man(a1-6)[Gal(b1-4)GlcNAc(b1-2)Man(a1-3)]Man(b1-4)GlcNAc(b1-4)[Fuc(a1-6)]GlcNAc
# In short: as §1
# [16] = target: Gal(b1-4)GlcNAc(b1-2)[Gal(b1-4)GlcNAc(b1-6)]Man(a1-6)[GlcNAc(b1-4)][Gal(b1-4)GlcNAc(b1-2)Man(a1-3)]Man(b1-4)GlcNAc(b1-4)GlcNAc
# In short: as §1
# [17] = target: Gal(b1-4)GlcNAc(b1-2)[Gal(b1-4)GlcNAc(b1-6)]Man(a1-6)[GlcNAc(b1-4)][Gal(b1-4)GlcNAc(b1-2)[Gal(b1-4)GlcNAc(b1-4)]Man(a1-3)]Man(b1-4)GlcNAc(b1-4)[Fuc(a1-6)]GlcNAc
# In short: as §1
# [18] = target: Gal(b1-4)GlcNAc(b1-3)Gal(b1-3)GalNAc
# In short: as §1
binder,measurement,setting,value
XL-35 (Xenopus laevis) (protein) MLVHILLLLVTGGLSQSCDPVVIVASKNMVKQLDCDKFRNCKEIKDSNEEAQDGIYTLTSPDGISYQTFCDMTTNGGGWTLVASVHENNMAGKCTIGDRWSSQQGNRADYPEGDGNWANYNTFGSAGGATSDDYKNPGYYDIEAYNLGVWHVPNKTPLSVWRNSSLQRYRTTDGILFKHGGNLFSLYRIYPVKYGIGSCSKDSGPTVPVVYDLGSANLTASFYSPGFRSQFTPGYIQFRPINTEKAALALCPGMKMESCNVEHVCIGGGGYFPEADPRQCGDFAAYDFNGYGTKKFNSAGIEITEAAVLLFYL,glycan array binding signal (z-score),[1],-0.008
same,glycan array binding signal (z-score),[2],-0.344
same,glycan array binding signal (z-score),[3],-0.399
same,glycan array binding signal (z-score),[4],-0.054
same,glycan array binding signal (z-score),[5],-0.127
same,glycan array binding signal (z-score),[6],-0.12
same,glycan array binding signal (z-score),[7],-0.108
same,glycan array binding signal (z-score),[8],-0.06
same,glycan array binding signal (z-score),[9],0.013
same,glycan array binding signal (z-score),[10],-0.488
same,glycan array binding signal (z-score),[11],0.777
same,glycan array binding signal (z-score),[12],-0.284
same,glycan array binding signal (z-score),[13],-0.264
same,glycan array binding signal (z-score),[14],0.116
same,glycan array binding signal (z-score),[15],0.078
same,glycan array binding signal (z-score),[16],-0.452
same,glycan array binding signal (z-score),[17],-0.335
same,glycan array binding signal (z-score),[18],-0.332
